Inconclusive means that the source gave no clear call. Such entries were picked first, then a sample of the others. Potencies beside an inconclusive call are fits to weak or partial responses and may not hold up. Calls of active or inactive are those of the source. The call rests on the fitted dose curve; in most records, active means well fitted cell-killing curve with a large enough effect; inconclusive means small, poorly fitted or top-dose-only effect, or effect the other way; inactive means no such curve, though single readings can be large or run the other way.
Tests used:
[1] = Viability qHTS for spleen associated tyrosine kinase inhibitor (SYKi) naive MV4-11 cells (AID 1963823); settings: MV4-11 AML viability, CellTiter-Glo luminescence, 72 h; viability (% of control): at 45 µM (top of the series); further: nearly all actives have a fitted effect of over 40% in size
Method in brief: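 Viability of MV4-11 AML cells lacking prior SYK inhibitor exposure is scored by CellTiter-Glo luminescence following 72 hr compound incubation at 37 C, 5% CO2, seeded at 500 cells per well.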

[2] = Viability qHTS for spleen associated tyrosine kinase inhibitor (SYKi) drug resistant MV4-11 cells (AID 1963824); further: nearly all actives have a fitted effect of over 35% in size
Method in brief: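 SYK inhibitor-resistant MV4-11 AML cells, 500 per well, added to predispensed compounds and incubated 72 hr at 37 C, 5% CO2. Viability measured by CellTiter-Glo luminescence after 10 min at room temperature.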
Potency means the concentration at half of the fitted maximal effect; tags describe the fitted curve by direction and shape.

SMILES	Potency [1]	Potency [2]	viability (% of control) [1]	viability, % of control [2]
O=C(Nc1ccc(N2CCC(C(=O)N3CCOCC3)CC2)cc1)c1cnc(Oc2ccccc2)nc1	inactive	inactive	–	–
CC(C)C(=O)c1cn(CC(=O)COc2ccc(Oc3ccccc3)cc2)c2ccc(C(=O)O)cc12	inconclusive: 29.1 µM [cytotoxic, single point]	inconclusive: 18.4 µM [cytotoxic, single point]	–	–
O=C(O)Cc1nn(Cc2nc3cc(C(F)(F)F)ccc3s2)c(=O)c2nccnc12	inactive	inactive	–	–
C/C=C(\C)C(=O)O[C@@H]1CC2[C@@H](CC=C3C[C@@H](O[C@H]4C[C@H](OC)[C@H](O[C@H]5C[C@H](OC)[C@H](O[C@@H]6O[C@H](C)[C@@H](O[C@H]7C[C@H](OC)[C@H](O[C@@H]8O[C@H](CO)[C@@H](O)[C@H](O)[C@H]8O)[C@@H](C)O7)[C@H](OC)[C@H]6O)[C@@H](C)O5)[C@@H](C)O4)CC[C@@]32C)[C@@]2(O)CC[C@H](C(C)=O)[C@@]12C (stereo partly specified)	–	–	inactive: 53.3% [at 9.25 µM]	inactive: 61.7% [at 9.25 µM]
NS(=O)(=O)c1ccc(N2N=C(c3ccccc3)CC2c2ccccc2)cc1 (stereo unspecified)	inconclusive: 23.1 µM [cytotoxic, partial curve]	inconclusive: 23.1 µM [cytotoxic, partial curve]	–	–
Nc1ncnc2c1ncn2Cc1c(F)cccc1Cl	inconclusive: 23.7 µM [cytotoxic, single point]	inactive	–	–
CSC(Cc1ccc(Cl)cc1)C(=O)Nc1ccc(Cl)cc1C(=O)O (stereo unspecified)	inconclusive: 18.4 µM [cytotoxic, single point]	inconclusive: 20.6 µM [cytotoxic, partial curve]	–	–
Cn1c(=O)cc(N2CCCC(N)C2)n(Cc2cc(F)ccc2C#N)c1=O (stereo unspecified)	inconclusive: 18.4 µM [cytotoxic, single point]	inconclusive: 0.651 µM [cytotoxic, partial curve, poor fit]	–	–
CCN(CC)CCCCCCNc1cc(OC)cc2c(C)ccnc12	inconclusive: 20.6 µM [cytotoxic, partial curve]	inconclusive: 13 µM [cytotoxic, partial curve]	–	–
N#Cc1cccc(C(=O)Nc2cc(-c3ccccc3)nn2-c2ccccc2)c1	inconclusive: 29.1 µM [cytotoxic, single point]	inconclusive: 23.1 µM [cytotoxic, single point]	–	–
OCC1OC(Oc2cc(O)cc(/C=C/c3ccc(O)cc3)c2)C(O)C(O)C1O (stereo unspecified)	inactive	inactive	–	–
Cc1c(C(=O)NCc2cccnc2)nn(-c2ccc(Cl)cc2Cl)c1-c1ccc(Cl)cc1	inactive	inactive	–	–
COC(=O)C1=CO[C@@H](O[C@@H]2O[C@H](CO)[C@@H](O)[C@H](O)[C@H]2O)[C@@H]2C(CO)=CC[C@]12O	inconclusive: 15.9 µM [cytotoxic, single point]	inactive	–	–
COc1cc(-c2cn(C)c(=O)c3cnccc23)c(OC)cc1CN(C)C	inconclusive: 16.6 µM [cytotoxic, partial curve]	inconclusive: 5.9 µM [cytotoxic, partial curve]	–	–
COC(=O)C1=CO[C@@H](O[C@@H]2O[C@H](CO)[C@@H](O)[C@H](O)[C@H]2O)[C@H]2[C@@H]1C=C[C@]21C=C([C@H](C)OC(=O)/C=C/c2ccc(O)cc2)C(=O)O1	inconclusive: 1.37 µM [cytotoxic, full curve]	inconclusive: 1.22 µM [cytotoxic, full curve]	–	–
O=c1[nH]nc2c3c(cccc13)NC(CN1Cc3ccccc3C1)=N2	inconclusive: 1.86 µM [cytotoxic, full curve]	inconclusive: 5.9 µM [cytotoxic, partial curve]	–	–
CC(C)=CCC[C@](C)(O[C@@H]1O[C@H](CO[C@@H]2OC[C@@H](O)[C@H](O)[C@H]2O)[C@@H](O)[C@H](O)[C@H]1O)[C@H]1CC[C@]2(C)[C@@H]1[C@H](O)C[C@@H]1[C@@]3(C)CC[C@H](O[C@@H]4O[C@H](CO)[C@@H](O)[C@H](O)[C@H]4O)C(C)(C)[C@@H]3CC[C@]12C	inconclusive: 8.93 µM [cytotoxic, single point]	inconclusive: 11.2 µM [cytotoxic, single point]	–	–
O=C(O)/C=C/c1cc2c(cc1O[C@@H]1O[C@H](CO)[C@@H](O)[C@H](O)[C@H]1O)OCO2	inconclusive: 0.0202 µM [cytotoxic, full curve, poor fit]	inactive	–	–
C=C1C(=O)O[C@@H]2C3C(=C(C)[C@@H](O)[C@@H](OC(=O)/C(=C/C)COC(C)=O)[C@@H]12)C(=O)[C@H]1O[C@@]31C (stereo partly specified)	active: 2.82 µM	active: 3.55 µM	–	–
N#Cc1c[nH]c2c(C(=O)N3CCN(CCc4ccc(F)cc4)CC3)cccc12	inconclusive: 18.4 µM [cytotoxic, partial curve]	inconclusive: 13 µM [cytotoxic, partial curve]	–	–
Cc1cc(C(=O)Cn2cc(C#N)ccc2=O)c(C)n1Cc1ccccc1	inconclusive: 11.6 µM [cytotoxic, partial curve]	inconclusive: 20.6 µM [cytotoxic, partial curve]	–	–
[N-]=[N+]=N[C@]1(CO)O[C@@H](n2ccc(N)nc2=O)[C@@H](O)[C@@H]1O	inactive	inconclusive: 2.06 µM [cytotoxic, partial curve, poor fit]	–	–
O=C(O)/C=C(\CC(=O)O)C(=O)O	inactive	inactive	–	–

Source: PubChem BioAssay (NCATS)
